Whole data set: some 33,000 sequences, median “E-score (-0.5 to 0.5)” near -0.035, cut for the highest 2% near 0.34. The list shows a part of the results.
Molecular target: T1, Mot3 (UniProt P54785)
T1 sequence: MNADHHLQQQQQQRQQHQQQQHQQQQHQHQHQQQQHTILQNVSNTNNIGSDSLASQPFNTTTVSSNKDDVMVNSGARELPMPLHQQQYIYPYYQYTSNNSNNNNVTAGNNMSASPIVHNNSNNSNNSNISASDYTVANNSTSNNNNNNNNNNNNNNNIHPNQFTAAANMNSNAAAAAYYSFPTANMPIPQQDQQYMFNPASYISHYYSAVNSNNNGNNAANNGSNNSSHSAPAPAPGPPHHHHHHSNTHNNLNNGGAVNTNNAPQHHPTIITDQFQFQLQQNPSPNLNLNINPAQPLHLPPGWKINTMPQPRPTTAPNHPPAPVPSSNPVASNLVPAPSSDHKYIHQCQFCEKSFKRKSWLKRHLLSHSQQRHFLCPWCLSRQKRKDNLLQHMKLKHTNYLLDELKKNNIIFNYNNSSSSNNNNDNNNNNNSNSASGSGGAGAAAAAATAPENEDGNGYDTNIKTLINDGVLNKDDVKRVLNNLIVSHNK
Assay: PBM E-score (8-mer binding enrichment) (E-score (-0.5 to 0.5)); higher = stronger / more preferred TF binding; most listed sequences are background and not binding sites
Settings: protein concentration: 200 nM; construct: GST-full length
Procedure, shortened: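 Using PURExpress in vitro transcription/translation, GST-tagged yeast transcription factors were made in full-length or DNA-binding-domain form. These were applied at about 100-200 nM to double-stranded universal all-10-mer Agilent arrays, and bound protein was detected with fluorescent anti-GST. Scans were normalised with masliner before the Universal PBM Analysis Suite assigned E-scores to ungapped eight-base words pooled with their reverse complements.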

Sequence | PBM E-score
CGGCTACC | -0.183
AATGCGTC | -0.0642
ACAGCCAT | 0.172
AAGAAAGC | 0.201
AACTCCGT | 0.0245
AATGGGGG | -0.21
AGTTCGAT | -0.024
AACGAAAT | 0.00166
AAGGGACC | -0.343
TATCCTCA | -0.237
AGGCAACT | 0.484
AGAATGGC | -0.0939
GCGGGTAC | -0.0259
ACGGTAAG | -0.091
CAACCGAA | 0.0641
ACAACACA | 0.337
GGATAAAC | 0.0805
AAACTAGC | -0.11
GGTTACAA | 0.186
AATACATA | 0.329
AACGGGCG | -0.0705
AACCTGCA | 0.0857
AAAGCACA | 0.201
AAGAAATC | 0.00616
GAGAATAA | -0.0315

Sequence | PBM E-score
CGCAGGTC | 0.0458
CCCCGTGA | -0.261
AGAGCGAA | -0.154
GCTCATGA | -0.182
GAGGGGTA | -0.211
CATTAGAC | -0.271
ATACGCCG | -0.0406
ATACCTAA | 0.071
TATAAATA | 0.155
GGGTTTAC | 0.128
AGTGCCAA | -0.0129
GGATGGCC | -0.279
CTGAGACC | -0.0491
GATCTCAA | -0.00924
ACTGGCAC | -0.21
AGCGAGTA | 0.115
CCTAGAAC | -0.0307
AAAACCAG | -0.0387
ATGGAATA | -0.0532
CCTATCTA | 0.0646
AATACCCC | -0.248
ATTTGATC | -0.242
CGCCTCAG | -0.208
GATTGGAC | -0.0906
ATCCGTCG | -0.153

Sequence | PBM E-score
TAATCCCA | 0.0453
ACCCATTG | -0.196
ACGTTGCC | 0.323
GCAACCAC | -0.0253
CTGGTCTC | -0.241
GAACTGAC | -0.0216
AGTTGGAG | -0.276
CCACTAAA | -0.107
ACAACGCA | 0.209
AATATCTC | -0.157
ACTCATTA | 0.0966
ACAGAGCA | 0.115
GTCCTCGA | -0.0132
ATATTGCG | -0.182
ACGGTGAT | -0.125
AGCAACAA | 0.0896
CAACGCGC | 0.245
AGGAGGGA | -0.144
GTTTCAAA | 0.0317
AGGTCGCA | -0.26
ACATACTC | 0.0698
AATGTAGC | -0.121
ACGGCAGC | 0.119
CGTAGTGA | 0.0533
AGATAAAT | 0.0522

Sequence | PBM E-score
GACACCAC | -0.184
ATTTTGCC | 0.257
ATTGGGTG | -0.18
ACAGAGAT | 0.0802
CACGCACG | 0.15
GTCCGGAA | -0.0613
ACTAGGCA | 0.425
ACCGTGGG | -0.203
TGCAGTAA | 0.0245
CATCGTGG | -0.216
AACACCGC | 0.0465
AAAATCAA | 0.0822
CCACCTGA | -0.252
GGAACGCC | 0.104
ACGGCCTG | -0.251
ATTTGCAA | 0.0602
AGTTCGGA | -0.0713
ATCACTAC | -0.00093
TGTCTTAA | 0.123
TAAAGAGA | 0.058
GTCACTCA | -0.119
CAGGCGGA | -0.112
CAGCGATC | -0.188
TGATAACA | 0.22
GCAGCTCA | -0.304

Sequence | PBM E-score
ACTGCGTG | -0.0888
GCAATCTA | 0.0532
CGGATCGC | -0.196
GGACGGCA | 0.0337
GTGTGACA | -0.00677
CGTGGCCA | -0.267
AATGCGCC | -0.0696
CCATTTTA | 0.18
GGAAGGCA | 0.482
ATAGTAGC | -0.196
ATTTCTCC | -0.213
AACTTTCT | -0.131
AAGGTGCC | 0.334
ATCGCCGC | -0.13
GTCCGCGA | -0.275
CTGCAGCC | -0.223
CGACCACG | -0.112
GAGAATGA | -0.0118
ACGGCTTC | -0.114
GGCCTCCA | -0.181
GTTGATAA | 0.25
ATCGAGTG | 0.0548
ACTTGCCG | -0.189
GGAGCACC | -0.269
AAGCTGAA | -0.129

Sequence | PBM E-score
ATCAGGAC | -0.157
AGGTTTCG | -0.122
CTGACAAC | -0.0187
AGTATGGC | -0.156
ATTTAGTG | 0.0618
CCTTAACA | 0.315
AGGGGATA | -0.262
CCGCAATC | -0.0394
AGAGTCTC | -0.348
CGTAAACG | 0.217
CTTGGGAC | -0.221
ATAGCACA | -0.0461
ACGGTTAC | 0.0985
AGGTGTAT | 0.0665
ATGATATA | 0.0727
CTACTCCC | -0.109
ATACAAAT | 0.118
CGATGAAG | -0.0712
AAGCATCG | -0.0126
ACCGATCT | -0.153
ATCTTCCG | -0.0782
ACTGTTGG | -0.221
ATTTCTTA | 0.0956
GCCCCCGA | -0.326
AGACGAAT | -0.044

Sequence | PBM E-score
TAATAGCA | 0.114
CAAATATG | 0.0836
CTAACCAG | 0.114
AAGACGAA | 0.0821
ATCTCTCC | -0.133
TAATGCAA | 0.211
CCCTTTAG | -0.102
CTACTAGA | -0.0908
CCGTAGGA | -0.159
CAGCGCTG | -0.025
AAACAGGA | 0.291
GCCAACGC | 0.0136
GATCAATC | -0.103
CGGGTTGC | -0.0651
GACCGCCC | -0.29
ACCGTTTC | 0.0747
CTACCGTA | -0.0264
AAGTCTGT | 0.137
CCGACAGC | -0.256
AAATAAAC | 0.0227
ATACGAAG | -0.0096
GATCACCA | -0.17

Source: the supplement of paper PMC3334620
